From PMC3584282 come the findings set out here.

These are yes or no findings as the source states them, for the method shown. For some assays here: In cells and extracts the contact can be indirect. Some entries that bind do so weakly or less than the wild type. For some assays here: Where a sequence is shown, tags or fusion partners need not be part of it.

Experiment [1] addresses Arl8b in the DNA-binding domain vector (yeast two-hybrid) (UniProt Q9NVJ2). The experiment in a line: two-hybrid; yeast two-hybrid (Matchmaker, Clonetech); baits in the DNA-binding domain vector, preys in the activation domain vector; growth on selective medium (-His).
In experiment [2] the target is T1, Arl8b in the DNA-binding domain vector (yeast two-hybrid), Q9NVJ2.
T1 chain: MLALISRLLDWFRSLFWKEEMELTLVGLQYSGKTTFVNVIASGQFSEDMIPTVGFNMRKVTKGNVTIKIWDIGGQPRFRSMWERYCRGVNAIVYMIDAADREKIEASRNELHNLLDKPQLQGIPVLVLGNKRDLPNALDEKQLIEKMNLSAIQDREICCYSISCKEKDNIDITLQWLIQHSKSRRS
The description is as above. To be noted: remark: other sources report otherwise.

Experiment [3] concerns the target GST-Arl8b (glutathione-S-transferase-tagged Arl8b) (UniProt Q9NVJ2). The experiment can be described thus: pull-down; lysates of HeLa cells transfected with HA-VPS41 passed over glutathione beads bound to GST or GST-Arl8b (WT, Q75L, T34N); eluates on SDS-PAGE, immunoblotted anti-HA; only the target purified. In general terms: In western blotting, separated proteins are transferred to a membrane and probed.

For the next experiment, the target named is GST-Arl8b-Q75L (UniProt Q9NVJ2). The description is as above.
In a further experiment the target is GST-Arl8b-T34N (UniProt Q9NVJ2). The experiment is described as above.
For experiment [4], the target named is Histadine-tagged Arl8b (His-Arl8b) (UniProt Q9NVJ2). The experiment in a line: pull-down; two-protein system: purified His-Arl8b immobilised on cobalt resin, exposed to purified GST, GST-VPS41 or GST-RILP; eluates on SDS-PAGE, blotted anti-GST; both purified.
Experiment [5] deals with dominant-active Arl8b Q75L in the DNA-binding domain vector (yeast two-hybrid) (UniProt Q9NVJ2). The experiment can be described thus: two-hybrid; yeast two-hybrid (Matchmaker, Clonetech); baits in the DNA-binding domain vector, preys in the activation domain vector; growth on selective medium (-His).

B1: VPS39 in the activation domain vector (yeast two-hybrid) (protein, UniProt Q96JC1 1-886)
chain: MHDAFEPVPILEKLPLQIDCLAAWEEWLLVGTKQGHLLLYRIRKDVVPADVASPESGSCNRFEVTLEKSNKNFSKKIQQIHVVSQFKILVSLLENNIYVHDLLTFQQITTVSKAKGASLFTCDLQHTETGEEVLRMCVAVKKKLQLYFWKDREFHELQGDFSVPDVPKSMAWCENSICVGFKRDYYLIRVDGKGSIKELFPTGKQLEPLVAPLADGKVAVGQDDLTVVLNEEGICTQKCALNWTDIPVAMEHQPPYIIAVLPRYVEIRTFEPRLLVQSIELQRPRFITSGGSNIIYVASNHFVWRLIPVPMATQIQQLLQDKQFELALQLAEMKDDSDSEKQQQIHHIKNLYAFNLFCQKRFDESMQVFAKLGTDPTHVMGLYPDLLPTDYRKQLQYPNPLPVLSGAELEKAHLALIDYLTQKRSQLVKKLNDSDHQSSTSPLMEGTPTIKSKKKLLQIIDTTLLKCYLHTNVALVAPLLRLENNHCHIEESEHVLKKAHKYSELIILYEKKGLHEKALQVLVDQSKKANSPLKGHERTVQYLQHLGTENLHLIFSYSVWVLRDFPEDGLKIFTEDLPEVESLPRDRVLGFLIENFKGLAIPYLEHIIHVWEETGSRFHNCLIQLYCEKVQGLMKEYLLSFPAGKTPVPAGEEEGELGEYRQKLLMFLEISSYYDPGRLICDFPFDGLLEERALLLGRMGKHEQALFIYVHILKDTRMAEEYCHKHYDRNKDGNKDVYLSLLRMYLSPPSIHCLGPIKLELLEPKANLQAALQVLELHHSKLDTTKALNLLPANTQINDIRIFLEKVLEENAQKKRFNQVLKNLLHAEFLRVQEERILHQQVKCIITEEKVCMVCKKKIGNSAFARYPNGVVVHYFCSKEVNPADT
In the case of B1, the binding entry in experiment [1] is “no binding”.

B2: VPS18 in the activation domain vector (yeast two-hybrid), Q9P253 1-973 (protein)
chain: MASILDEYENSLSRSAVLQPGCPSVGIPHSGYVNAQLEKEVPIFTKQRIDFTPSERITSLVVSSNQLCMSLGKDTLLRIDLGKANEPNHVELGRKDDAKVHKMFLDHTGSHLLIALSSTEVLYVNRNGQKVRPLARWKGQLVESVGWNKALGTESSTGPILVGTAQGHIFEAELSASEGGLFGPAPDLYFRPLYVLNEEGGPAPVCSLEAERGPDGRSFVIATTRQRLFQFIGRAAEGAEAQGFSGLFAAYTDHPPPFREFPSNLGYSELAFYTPKLRSAPRAFAWMMGDGVLYGALDCGRPDSLLSEERVWEYPEGVGPGASPPLAIVLTQFHFLLLLADRVEAVCTLTGQVVLRDHFLEKFGPLKHMVKDSSTGQLWAYTERAVFRYHVQREARDVWRTYLDMNRFDLAKEYCRERPDCLDTVLAREADFCFRQRRYLESARCYALTQSYFEEIALKFLEARQEEALAEFLQRKLASLKPAERTQATLLTTWLTELYLSRLGALQGDPEALTLYRETKECFRTFLSSPRHKEWLFASRASIHELLASHGDTEHMVYFAVIMQDYERVVAYHCQHEAYEEALAVLARHRDPQLFYKFSPILIRHIPRQLVDAWIEMGSRLDARQLIPALVNYSQGGEVQQVSQAIRYMEFCVNVLGETEQAIHNYLLSLYARGRPDSLLAYLEQAGASPHRVHYDLKYALRLCAEHGHHRACVHVYKVLELYEEAVDLALQVDVDLAKQCADLPEEDEELRKKLWLKIARHVVQEEEDVQTAMACLASCPLLKIEDVLPFFPDFVTIDHFKEAICSSLKAYNHHIQELQREMEEATASAQRIRRDLQELRGRYGTVEPQDKCATCDFPLLNRPFYLFLCGHMFHADCLLQAVRPGLPAYKQARLEELQRKLGAAPPPAKGSARAKEAEGGAATAGPSREQLKADLDELVAAECVYCGELMIRSIDRPFIDPQRYEEEQLSWL
On to B2, for which, in experiment [2], the binding entry is reported as “no binding”.

B3: HA-VPS41 (hemagglutinin-tagged VPS41) (protein, UniProt P49754 1-854)
chain: MAEAEEQETGSLEESTDESEEEESEEEPKLKYERLSNGVTEILQKDAASCMTVHDKFLALGTHYGKVYLLDVQGNITQKFDVSPVKINQISLDESGEHMGVCSEDGKVQVFGLYSGEEFHETFDCPIKIIAVHPHFVRSSCKQFVTGGKKLLLFERSWMNRWKSAVLHEGEGNIRSVKWRGHLIAWANNMGVKIFDIISKQRITNVPRDDISLRPDMYPCSLCWKDNVTLIIGWGTSVKVCSVKERHASEMRDLPSRYVEIVSQFETEFYISGLAPLCDQLVVLSYVKEISEKTEREYCARPRLDIIQPLSETCEEISSDALTVRGFQENECRDYHLEYSEGESLFYIVSPRDVVVAKERDQDDHIDWLLEKKKYEEALMAAEISQKNIKRHKILDIGLAYINHLVERGDYDIAARKCQKILGKNAALWEYEVYKFKEIGQLKAISPYLPRGDPVLKPLIYEMILHEFLESDYEGFATLIREWPGDLYNNSVIVQAVRDHLKKDSQNKTLLKTLAELYTYDKNYGNALEIYLTLRHKDVFQLIHKHNLFSSIKDKIVLLMDFDSEKAVDMLLDNEDKISIKKVVEELEDRPELQHVYLHKLFKRDHHKGQRYHEKQISLYAEYDRPNLLPFLRDSTHCPLEKALEICQQRNFVEETVYLLSRMGNSRSALKMIMEELHDVDKAIEFAKEQDDGELWEDLILYSIDKPPFITGLLNNIGTHVDPILLIHRIKEGMEIPNLRDSLVKILQDYNLQILLREGCKKILVADSLSLLKKMHRTQMKGVLVDEENICESCLSPILPSDAAKPFSVVVFHCRHMFHKECLPMPSMNSAAQFCNICSAKNRGPGSAILEMKK
With B3, the binding entry was “binds” in experiment [3], “binds” with GST-Arl8b-Q75L and “no binding” in the experiment with GST-Arl8b-T34N.

B4: GST-tagged VPS41 (GST-VPS41) (protein, UniProt P49754 1-854)
chain: B3 chain
As to B4, the binding result in experiment [4] is listed as “binds”.

B5: VPS41 in the activation domain vector (yeast two-hybrid) (protein, UniProt P49754 1-854)
chain: B3 chain
Take B5: the binding entry in experiment [1] and in experiment [5] was “binds” each time.
